Measurements as given in paper PMC4336329 (PLoS ONE, 2015).
Out of some 310,000 compounds screened, about 14,000 (4.5%) showed an effect of 50% or more. The effect is printed as a negative number. The list shows a part of the results.

biological target: human ether-à-go-go-related gene (hERG) potassium channel (human, UniProt Q12809); assay: primary screen, population patch clamp on CHO cells stably expressing hERG
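Further: peak tail current of the secondary pulse compared with the same well before compound.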

human ether-à-go-go-related gene (hERG) potassium channel, sequence (Q12809 whole entry, looked up): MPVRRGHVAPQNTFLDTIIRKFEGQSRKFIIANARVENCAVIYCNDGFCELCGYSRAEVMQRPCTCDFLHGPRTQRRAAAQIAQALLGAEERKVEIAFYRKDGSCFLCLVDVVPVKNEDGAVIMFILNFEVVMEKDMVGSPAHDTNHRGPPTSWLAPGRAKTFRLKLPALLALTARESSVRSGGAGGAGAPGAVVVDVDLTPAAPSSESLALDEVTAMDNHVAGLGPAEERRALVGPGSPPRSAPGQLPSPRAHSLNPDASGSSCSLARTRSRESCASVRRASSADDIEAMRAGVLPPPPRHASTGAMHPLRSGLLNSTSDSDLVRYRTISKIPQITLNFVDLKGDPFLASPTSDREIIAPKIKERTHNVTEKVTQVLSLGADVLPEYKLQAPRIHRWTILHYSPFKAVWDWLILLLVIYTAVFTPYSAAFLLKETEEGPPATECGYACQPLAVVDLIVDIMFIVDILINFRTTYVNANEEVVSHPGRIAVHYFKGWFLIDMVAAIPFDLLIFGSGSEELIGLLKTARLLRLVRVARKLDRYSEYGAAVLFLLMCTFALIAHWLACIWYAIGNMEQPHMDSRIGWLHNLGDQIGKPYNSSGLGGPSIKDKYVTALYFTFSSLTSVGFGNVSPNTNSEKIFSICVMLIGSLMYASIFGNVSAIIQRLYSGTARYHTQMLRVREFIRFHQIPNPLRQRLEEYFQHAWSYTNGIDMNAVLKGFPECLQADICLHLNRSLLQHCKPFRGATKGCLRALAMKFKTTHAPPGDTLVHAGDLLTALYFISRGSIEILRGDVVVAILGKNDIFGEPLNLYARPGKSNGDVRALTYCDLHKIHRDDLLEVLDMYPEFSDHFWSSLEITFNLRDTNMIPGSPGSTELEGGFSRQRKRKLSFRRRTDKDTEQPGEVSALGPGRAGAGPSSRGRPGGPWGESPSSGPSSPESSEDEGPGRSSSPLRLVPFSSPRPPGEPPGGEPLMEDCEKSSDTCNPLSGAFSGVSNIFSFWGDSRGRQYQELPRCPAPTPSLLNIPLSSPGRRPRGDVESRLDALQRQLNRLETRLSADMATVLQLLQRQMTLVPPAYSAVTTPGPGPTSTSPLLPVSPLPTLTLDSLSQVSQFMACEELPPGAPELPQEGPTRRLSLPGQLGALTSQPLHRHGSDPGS

Row | SMILES | hERG current change (%, negative = inhibition) at 10uM
1 | COc1ccc(N(CCC(=O)O)S(=O)(=O)c2ccc(C)c(C)c2)cc1 | -10.8%
2 | CC(C)(CO)NCc1ccc(Br)cc1.Cl | -8%
3 | CC1(C)Cc2c(c(-c3ccco3)nc3sc4c(NCCN5CCOCC5)ncnc4c23)CO1 | -4.19%
4 | Cc1cccc(-n2c(O)c(C=Nc3ccc4c(c3)OCO4)c3ccccc3c2=O)n1 | -6%
5 | O=C(O)CC1(CC(=O)NCc2csc(-c3cccs3)n2)CCCCC1 | 4.62%
6 | COc1cc(/C=C2\SC(=S)N(CCC(=O)Nc3ccccc3)C2=O)cc(OC)c1OC | 28.7%
7 | CC(NC(=O)c1ccccc1Br)c1nnc(SCC(=O)NC2CCCCC2)n1C (stereo not shown) | -24.7%
8 | Cc1nnc(SCC(=O)N2CC(=O)Nc3ccccc32)n1Cc1ccccc1 | -2.24%
9 | COc1ccc(/C=C(\NC(=O)c2ccccc2)C(=O)NCc2ccco2)cc1OC | 1.83%
10 | CCc1ccc(NC(=O)NCc2ccccn2)cc1 | 4.06%
11 | N#Cc1c(N2CCCCC2)nc(N)c2c(N)nc(SCC(=O)O)cc12 | -8.15%
12 | O=C(Nc1ccc2c(c1)OCO2)C(c1ccc(Cl)cc1)N1CCN(C(=O)c2ccco2)CC1 (stereo not shown) | -40%
13 | COc1ccc(NC2=NCCC2)cc1 | 4.94%
14 | COc1ccc(N(C(=O)c2csnn2)C(C(=O)NC2CCCC2)c2ccccc2)cc1 (stereo not shown) | -9.35%
15 | COc1ccnc(Oc2ccccc2)n1 | 5.26%
16 | N#CC1=C(N)C(C#N)(C#N)C2(C(=O)Nc3ccccc32)C2CCCC=C12 (stereo not shown) | -5.47%
17 | Cc1oc(C(C)(C)C)cc1C(=O)NC1CCN(Cc2ccccc2)CC1 | -8.43%
18 | CCc1cccc(C)c1NS(=O)(=O)c1cccs1 | -11.9%
19 | COc1ccc(C2=NOC(C(=O)NC(C)C)C2)cc1 (stereo not shown) | 15.8%
20 | CS(=O)(=O)c1ccc(NC(=O)c2cccc(-n3cnnn3)c2)cc1 | 12.1%
21 | COc1ccc(CN(C)C(=O)C2CSC3(C)CCC(=O)N23)cc1OC (stereo not shown) | 15.5%
22 | CCc1ccc(OCC(=O)O/N=C(\N)Cc2ccc([N+](=O)[O-])cc2)cc1 | -53.9%

Row | SMILES | hERG current change (%, negative = inhibition) at 10uM
23 | Fc1ccc(SCCc2ccncc2)cc1 | -29.9%
24 | Cc1nc2ccc(NC(=O)c3sccc3C)cc2s1 | -7.79%
25 | Cc1ccc(C(=O)Nc2ccc(C(=O)N/N=C/c3ccc(C)o3)cc2)cc1 | 19.9%
26 | Cc1ccc(S(=O)(=O)CC(=O)NC(C)c2ccccc2)cc1 (stereo not shown) | 8.46%
27 | Cc1nc2ccc(NC(=O)c3ccc(S(=O)(=O)N4CCOCC4)cc3)cc2s1 | 5.2%
28 | Cc1cc(C)cc(C(=O)NCC(=O)NNC(=O)CSc2ccccc2F)c1 | 8.47%
29 | CCOC(=O)CN(C(=O)CN1CCOCC1)c1ccc(Br)cc1 | -7.76%
30 | Cc1nn(CCCC(=O)NCCc2ccccc2)c(=O)c2nn(-c3ccccc3)c(C)c12 | 3.79%
31 | CCCCC1(C)NC(=O)N(CC(=O)Nc2ccc(S(=O)(=O)N3CCOCC3)cc2)C1=O (stereo not shown) | 6.65%
32 | Cc1cccc(NC(=O)CSc2nc(C)c(Cc3ccccc3)c(=O)[nH]2)c1C | 5.74%
33 | Cc1cccc(C(=O)NCC(=O)OCC(=O)N(C)CC(=O)Nc2ccc(F)cc2)c1 | 8.6%
34 | Cc1ccc(C(C(=O)NC2CCCC2)N2CCc3ccccc32)cc1 (stereo not shown) | 8.39%
35 | COc1ccc(NC(=O)C(c2ccc(C)cc2)N(C)C(=O)CNC(C)=O)cc1 (stereo not shown) | -1.01%
36 | Cc1ccc(-c2nn(-c3ccccc3)cc2C=C2C(=O)CC(C)(C)CC2=O)cc1 | 4.87%
37 | CCC(=NCCCN(CC)CC)c1c(O)n(C2CCCCC2)c(=O)[nH]c1=O | -52.9%
38 | COc1ccc(S(=O)(=O)NCCOc2ccccc2)cc1-n1cnnn1 | -10.8%
39 | COc1ccc(NC2=CC(=O)CC(C)(C)C2)cc1OC | -4.44%
40 | COc1ccc(NC(=S)N(CCc2c(C)[nH]c3ccc(C)cc23)Cc2cccs2)cc1 | 12.3%
41 | O=C(CN1CCC(C(=O)O)CC1)Nc1ccccc1Oc1ccccc1 | 20.1%
42 | C=C(C)C(=O)Nc1cccc(C(C)=O)c1 | 5.08%
43 | O=C(CN(C(=O)CCC(=O)Nc1nccs1)c1ccccc1F)NCc1ccccc1 | 2.45%
